Drawing on PMC6212790, this text covers binding signal for 172 sequences.

The other results are listed elsewhere or left out. At the low end of the ranking the order means little.

The assay concerns the target T1, GST-Rok (full length) (UniProt O34857).
T1 sequence: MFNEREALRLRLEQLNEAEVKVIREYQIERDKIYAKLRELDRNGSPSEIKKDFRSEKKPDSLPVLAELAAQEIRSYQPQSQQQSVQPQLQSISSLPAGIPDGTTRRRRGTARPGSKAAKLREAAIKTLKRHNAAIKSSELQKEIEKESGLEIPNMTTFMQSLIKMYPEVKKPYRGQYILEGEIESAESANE
In words: protein binding microarray.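 Note: rank score from −0.5 (least bound) to 0.5 (best bound).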 Conditions: Rok is a gene silencer of Bacillus subtilis; high values mean tight binding; most listed sequences are background and not binding sites; double strand, one strand shown.
TATATTAA had a binding signal of 0.364 E-score.
Sequence CTAAAGGC came in with a binding signal of -0.136 E-score.
GGCACTGA yielded a binding signal of -0.158 E-score.
Turning to CGACGCAA, the binding signal worked out at 0.0906 E-score.
For the sequence AACCCGTA, the binding signal was found to be 0.0805 E-score.
The result for CAACAACC reads -0.155 E-score; that for GGAACTCA, -0.128 E-score.
Sequence CGGATGTC came in with a binding signal of -0.0922 E-score.
The result for ATTACACC reads 0.121 E-score; that for AGAAATCT, 0.244 E-score.
For ACTTCAGA, the binding signal amounted to 0.0699 E-score.
The result for GTGGTGAA reads 0.0689 E-score; that for ACGCAGCG, -0.209 E-score.
ACTTACAC displayed a binding signal of 0.188 E-score.
For CCAATCAA, the binding signal is -0.122 E-score.
The sequence ACGATCCC showed a binding signal of -0.285 E-score.
Next, ACTTCTCT: 0.149 E-score; CTTAATCA: 0.0499 E-score; AACCTGAT: 0.133 E-score.
CAGATTGA yielded a binding signal of 0.00835 E-score.
With CACTAGTC, the binding signal is 0.149 E-score.
The result for CGCCCCTC reads -0.253 E-score; that for CCACTAAC, 0.145 E-score; that for CGGTAAAA, 0.278 E-score.
As to CTACAAGA, the binding signal came out at 0.261 E-score.
Next, CATCCAAC: -0.00877 E-score.
The result for CCACTTTA reads -0.00666 E-score.
For ACAGGTGC, the binding signal was -0.224 E-score.
The result for CGTGCATA reads 0.191 E-score; that for ACCGGAAC, -0.176 E-score; that for ATCGAGTC, 0.0425 E-score.
The result for GTGCCGTA reads 0.016 E-score; that for CGCTTATC, -0.0419 E-score.
The result for ATGGCAAA reads -0.0889 E-score; that for AAGTGACT, -0.0431 E-score; that for AAACGCCT, -0.228 E-score.
CCAGTGGC came in with a binding signal of -0.269 E-score.
Next, CGAGCTTA: -0.131 E-score; CGCCACGA: -0.194 E-score.
As to AGGATCGC, the binding signal is -0.27 E-score.
The result for ACTATTCG reads 0.188 E-score; that for AACTTACG, -0.0637 E-score.
The result for AATGTCGT reads 0.00109 E-score.
The result for TCAAGTAA reads 0.154 E-score; that for CGGTTAGC, -0.145 E-score.
For the sequence ATCCGTAC, the binding signal worked out at 0.113 E-score.
Next, TATCAACA: 0.235 E-score; CAGCCAGG: -0.19 E-score.
Next, ATATAGGA: 0.195 E-score; ACGGCTGC: -0.12 E-score.
For the sequence AAACGTAG, the binding signal came out at 0.129 E-score.
Next, AGCAGTTC: -0.129 E-score; AGGGGGGA: -0.358 E-score; GCGCCAGC: -0.215 E-score.
Take CACGTTGA: the binding signal is 0.088 E-score.
Regarding CGGGAGAC, the binding signal is -0.261 E-score.
The result for GCAAACTA reads 0.386 E-score; that for CGGACGTC, -0.0762 E-score; that for TAGTCAAA, 0.0859 E-score.
Next, AGCCTAGG: -0.0939 E-score.
The result for GAGAAGAC reads -0.158 E-score.
For AGGCTATC, the binding signal was -0.0983 E-score.
The result for ACAGCATC reads -0.0332 E-score; that for CTGTTGGC, -0.196 E-score; that for CCTGATGA, -0.175 E-score.
The result for GGATACGA reads 0.147 E-score; that for ACACGGGG, -0.153 E-score.
Sequence TGAACTAA showed a binding signal of 0.0469 E-score.
Next, GGAGATCA: -0.09 E-score.
Take CATGTTGA: the binding signal was -0.0266 E-score.
The result for TAGAGGAA reads -0.102 E-score.
Next, AACCGCAG: 0.0679 E-score.
CCTGCGGA returned a binding signal of -0.113 E-score.
In turn, ATCCGGAC came in with a binding signal of -0.147 E-score.
The result for AAGGGCTG reads -0.263 E-score.
The result for TAAAGCCA reads -0.0305 E-score; that for CCCCAATA, -0.201 E-score; that for AGTTAGGC, -0.00656 E-score.
Consider GTTCCGCA, for which the binding signal is -0.194 E-score.
Next, ATCCTGCG: -0.253 E-score; CCAATGAG: -0.122 E-score; CTAAACCC: -0.0607 E-score.
The result for CGTCTTCA reads -0.18 E-score; that for ACCTTATC, 0.155 E-score.
The result for CTGTTGAC reads -0.176 E-score; that for ATATACTC, 0.288 E-score.
For AAGCCTGA, the binding signal is -0.131 E-score.
The result for AACACGCA reads -0.059 E-score.
As to ACCAATCG, the binding signal stood at 0.168 E-score.
In turn, CGCGCACG had a binding signal of -0.116 E-score.
As for ACTTCGGG, the binding signal is -0.166 E-score.
The result for GACCCGTC reads -0.405 E-score; that for GAACGCGA, -0.116 E-score; that for GTAGCGAA, 0.0427 E-score.
Next, AGTGTACC: -0.0418 E-score.
TGAAAGCA showed a binding signal of 0.149 E-score.
As to ATTACTCG, the binding signal came to 0.225 E-score.
Next, ACCGTGTG: -0.264 E-score; ATCCTCCG: -0.372 E-score.
The result for GGCCGGCA reads -0.232 E-score.
ATACTGGA: the binding signal is 0.0812 E-score.
In turn, CGGGAGGA showed a binding signal of -0.27 E-score.
CCATACTA displayed a binding signal of 0.318 E-score.
Sequence CGTCGGGA yielded a binding signal of -0.196 E-score.
For CGACTGAG, the binding signal is -0.126 E-score.
On to ACAAACTG, for which the binding signal was found to be 0.127 E-score.
Next, AAGACGCC: -0.197 E-score; CGGACCCG: -0.187 E-score.
The result for GGAACCAC reads -0.326 E-score; that for GTGGTTTA, 0.128 E-score.
On to AGGGGCGG, for which the binding signal was -0.323 E-score.
In turn, ACGTCTAT returned a binding signal of 0.0311 E-score.
The result for GTCGACAA reads -0.15 E-score; that for CGAAGGGA, -0.25 E-score; that for TAACATCA, 0.239 E-score.
The result for CTTCTGGC reads -0.0909 E-score.
Next, AATCAACT: 0.143 E-score.
For the sequence GTCACACA, the binding signal was -0.0901 E-score.
Regarding AAACACCC, the binding signal is -0.0072 E-score.
The result for CCGGGGAC reads -0.294 E-score; that for CCCGGCAA, -0.238 E-score; that for AGCCTGCC, -0.413 E-score.
Next, CAACCGCC: -0.241 E-score; CGACACTC: 0.00292 E-score; AGCAATGG: -0.123 E-score.
Next, ATTTTTGA: 0.0221 E-score.
GTAATGAC gave a binding signal of 0.089 E-score.
The result for ACCAAGGT reads -0.0988 E-score; that for ATTGTAAA, 0.19 E-score.
With TACACTAA, the binding signal stood at 0.231 E-score.
Turning to ACACTTAC, the binding signal came to 0.125 E-score.
The result for AATAGCAT reads 0.157 E-score; that for CGGCAGGA, -0.23 E-score; that for AGAACAGA, 0.0149 E-score.
The result for ATTAGGAG reads 0.00955 E-score; that for TAGGTGCA, -0.0387 E-score; that for AAATGCTG, -0.0176 E-score.
On to ACGGGTTA, for which the binding signal was -0.0683 E-score.
ACAAGGGT returned a binding signal of -0.232 E-score.
Next, ACAGCGAA: 0.0835 E-score; AGTACAAA: 0.343 E-score; GGCTATCA: -0.0678 E-score.
For CAGATACA, the binding signal turned out to be 0.0953 E-score.
Next, AACGGCCG: -0.141 E-score; AGTCAGGG: -0.203 E-score; CTAAGTAG: 0.265 E-score.
Next, CGCATCAG: -0.0908 E-score; AGGCCTCC: -0.306 E-score.
The result for CCCGAATA reads -0.0335 E-score.
Consider AACGCGGG, for which the binding signal is -0.215 E-score.
In the case of ACAACTCT, the binding signal came out at 0.13 E-score.
ACTCTCGA gave a binding signal of 0.0258 E-score.
With TAAGGGCA, the binding signal was -0.0713 E-score.
The result for AATCGAGT reads 0.0488 E-score; that for AACTGCCC, -0.229 E-score.
The result for AGCACTGC reads -0.181 E-score; that for ACTGCAAG, -0.0875 E-score.
Turning to GTGCTTTA, the binding signal was -0.00122 E-score.
AGCCACGC registered a binding signal of -0.0645 E-score.
With GCCTTCCA, the binding signal was -0.308 E-score.
CCGCTAGG yielded a binding signal of -0.19 E-score.
The result for CAGGGTTA reads -0.0832 E-score; that for AAGCATGC, 0.0123 E-score.
Next, CCAGAGAA: 0.0464 E-score; CTCAGGGC: -0.361 E-score; CGATACGA: -0.0427 E-score.
Take TAACGTCA: the binding signal is -0.0277 E-score.
Next, ACCCGTGC: -0.248 E-score; TATACCAA: 0.295 E-score.
The result for GTTACGTA reads 0.169 E-score.
The result for GGGCGCAC reads -0.355 E-score; that for GATACGGA, -0.0623 E-score.
